Sequences with one replicate were seen in a single cluster, so their values are uncertain.
Each sequence was assayed on ATP (assay: switch fluorescence ratio, 500 uM ATP over buffer (Cy3 cluster intensity, sum of 5 cycles each) (fold (ratio)); higher = stronger signal-on switching upon ATP binding; sequences stand for … in TCGTCGGCAGCGTCAGATGTGTATAAGAGACAGTTTTTTTTTTTTTTTTTTTTTTTTT…TC). Settings: aptamer strand: ATP DNA aptamer (quencher-CACCTGGGGGAGTATTGCGGAGGAAGG + anchor), 100 nM annealed; ATP concentration: 500 uM; one replicate.
How it was run: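 Switching-strand clusters labelled with Cy3 on a modified Illumina MiSeq flow-cell were annealed to 100 nM quencher-labelled ATP aptamer, imaged in selection buffer, and re-imaged after 15 min with 500 uM ATP at 22 °C. This was done over five cycles with NaOH stripping and re-annealing in between. The fluorescence ratio is summed target-cycle over summed buffer-cycle Cy3 intensity per cluster, averaged per switch-domain sequence, excluding clusters outside 100-1000 RFU.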
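Further: ATP exposure 15 min at 22 °C before imaging.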

Sequence	switch fluorescence ratio
CAACAAAGGC	1.01
GATGGCTCG	1.01
TTCGGAAGA	1.03
TTTCAAATGA	1.16
AAGCGTTCAC	1.07
AGGAATATCG	1.02
GGTTAATCAA	0.982
CGAAGACGTG	0.962
CCCACGGGTA	1.68
GTGGAGTAGA	1.04
GTGTTACACG	0.938
GGGCGGAAGC	0.988
TTGAGAATAT	1.01
ACTTCCTTT	1.07
TAGTATTGAT	0.998
TTAAGAAAGA	1.01
CATCGGGATG	0.982
AAAGTAACCC	0.967
CAGGAGGTGA	1.06
ACTATGTGCT	0.988
GGCTACAGTT	0.959
GGTTTGGTGC	1.05
TATTGGCTGC	1
GTGATAATAC	1.46
CTTTTAAG	1.03
GCGGACACGT	0.981

Sequence	switch fluorescence ratio
GCAGGGTTAA	0.982
CGCACTTCTT	1.16
TGAATCACTG	1.15
CTTGTGTCGG	1
CAATCATCTC	0.976
GGTGACATGT	1.01
AGGCAGAGGG	1.02
GAGCTGGGCA	0.988
GGGCAGATTG	0.996
CTTAAGGACA	1
CCACATTCTT	1.02
TCTGATATAC	2.22
GTCACCGGGG	1.03
TACTTTCCGG	1.14
GAGGTTATCG	1.02
CCAGTGCGCG	0.96
CTTAAGTCAG	0.982
TGCTCACACA	0.98
TTGCCGTTTT	1.14
CTGCTCTTGA	1.02
CGGTGGGAGC	0.974
TCTTATGTCA	1
AGCATAACTA	1.05
AATAGGATAT	1.01
CTAAAGTTTG	1
AGCAGCGCCC	1.04

Sequence	switch fluorescence ratio
AATTGGCTAT	1.01
TACTAATAAT	1.04
CCCTGCCGGT	1.04
CTTCGAACCT	1.85
TCCGTGTCCA	1.03
TCCAGTCGC	1.05
GTTACCCGAA	0.991
CTGAGCTGGG	1
TAATCTAATG	0.979
GGTGGCTCCG	1
CGGTGGCGCT	1.06
TCGGGATGGA	0.994
GCATCTTCTG	0.954
CTGCGTTATT	1.02
TCTGGATGCC	1.02
TATCAAGGTC	1.01
TTAGCGGGTC	1.03
TCTTTATCTA	1.02
GCCGTACCGC	1.01
AGTGGTTGGC	0.982
ACGTCGTCCA	1.03
GGCTTCATAC	1.36
TTACGTCCGC	1.38
AGCATTGATT	0.988
AAGGGTATAG	1.07
GACACCATGC	1.23

Sequence	switch fluorescence ratio
CCCAGAGCAC	2.66
ATTGGGACAA	1.03
ATTGTAGGTG	1.06
CCAGTTAGAC	1.33
TGGTCGGTGA	0.959
CTAGTGTAGA	1.04
AGTAATGTT	0.99
CTGAACAATA	1.62
GCAATATGCG	1.07
TGGTGTGTG	0.943
CGCAAAGCTT	1.21
TAATGCGACT	1.04
TAGGAATACA	1.42
TTAGACTGAT	1.04
AGCCGATTTG	1.04
AGCTGGTCAC	0.992
CTAAGCATGT	1.77
TAAAATAACG	1.07
GGGATACTAT	0.971
ACTATGCGGA	1.09
ATACTTATAC	1.13
ATTCAAATGC	0.989
CTTTTCTGCG	1.04
GATCTAAGT	0.972
TGAGATTCGT	1
GGCTAGACC	1.04

Sequence	switch fluorescence ratio
TGGGGAAATC	2.91
GGGATACCT	1.92
AACAACGGCG	0.991
GGTCTTTCGT	1.02
TCACGTCAGG	1.06
AGTGTGCTGC	1.02
ACGGCATGAA	1.09
GCGGGATGGA	1.02
AATCCTATCC	1.28
ACTTGATCAA	1.03
GATATCCGGT	0.939
GAATCATAAG	1
TTCGGCAGGC	1.2
AACGGTACT	1.54
CATAATATGT	1.05
ATTCCGGGCG	1.07
CGCCCGAGAT	1.36
AGGGAAAGAG	1.32
CTCATCGGG	1.04
ACCGGTATTG	1.05
TATGTCTGCA	1.02
AGATACGTGG	0.978
CAGCTAAAAA	1.63
TCGGTAAAA	0.959
TTCGTGCGCT	0.983
CGAGGGTATA	1.32

Sequence	switch fluorescence ratio
TCTCTTTTAG	1.04
TATGACACGT	0.995
GTGCCTGGTC	0.988
GGTCGCACTG	1
CGGGTGTGAT	1.03
TAGAAGATTC	0.994
AGCGGGAAAT	1.01
GCGATTATCG	1.02
CCTGCGGATC	3.06
GCGTATTAAT	1.02
AACAGCGGGG	1.01
AAGAACCCCA	1.02
CAGCGCCTAT	0.998
TCCACTAGAA	0.996
GGAATGGAGT	1
GACGGTGGAA	1
GCGCTATACA	3.64
TCCTCCAGTT	1.01
GGTCACGGTT	1.05
ACTGGTTGT	0.996
GACTAGTGGA	0.967
GCTTGGGCCT	1.02
AGTAAGCAAT	2.18
